# Reference: the supplement of paper PMC12217912
# The other results are listed elsewhere or left out. The full chains were built here from the parent and the listed change. Inactive controls read about 0.05.
# B1: TEV protease; numbered along this chain (parent)
# chain: MGESLFKGPRDYNPISSSICHLTNESDGHTTSLYGIGFGPFIITNKHLFRRNNGTLVVQSLHGVFKVKDTTTLQQHLVDGRDMIIIRMPKDFPPFPQKLKFREPQREERICLVTTNFQTKSMSSMVSDTSCTFPSGDGIFWKHWIQTKDGQCGSPLVSTRDGFIVGIHSASNFTNTNNYFTSVPKNFMELLTNQEAQQWVSGWRLNADSVLWGGHKVFMVKPEEPFQPVKEATQL
# Variants of: B1
# Assay: raw area under fraction-flipped curve 0-4 h after induction (AUC4h, not background-subtracted), DNA-recorder readout of cleavage of the substrate (dimensionless); higher = more cleavage of the substrate by the protease variant
# Conditions: temperature: 34 °C; time window: 0-4 h after rhamnose induction
# 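Note: Bxb1 expression induced with 0.2% (w/v) L-rhamnose at OD600 near 0.5, cultures sampled hourly, flipped fraction per protease–substrate barcode pair counted by paired-end Illumina sequencing.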
Variant,area with substrate ENLYFES,area with substrate ENLYFGS,area with substrate ENLYFIS,area with substrate ENLYFKS,area with substrate ENLYFLS,area with substrate ENLYFMS,area with substrate ENLYFNS,area with substrate ENLYFPS,area with substrate ENLYFSS,area with substrate ENLYFVS,area with substrate ENLYFWS,area with substrate ENLYFYS,area with substrate ENLYFCS,area with substrate ENLYFDS,area with substrate ENLYFFS,area with substrate ENLYFHS,area with substrate ENLYFRS,area with substrate ENLYFTS
D208T,0.0606,0.0544,0.062,0.0614,0.0544,0.057,0.0575,0.0719,0.0172,0.034,0.0614,0.0558,,,,,,
D208I,0.0562,0.0681,0.0457,0.068,,0.0626,0.0641,0.0598,0.0569,0.0764,0.0633,0.0465,0.0475,0.0616,0.0669,0.0676,0.063,0.06
D208W,0.0554,0.0622,0.0616,0.0716,0.0568,0.0682,0.0565,0.0595,,0.0686,,0.063,0.0547,0.0446,0.0739,0.0553,,
H215V,,,,,0.0773,0.063,,,,0.0512,0.051,0.0554,0.0588,0.0618,0.0388,,0.0587,0.0576
G202K,0.074,,0.0519,,,0.0705,,,,,,,,,0.0627,0.0461,,
S60T,0.0631,,0.0632,,0.058,0.062,,0.0594,0.0645,,0.0489,0.0642,,0.0635,0.052,0.0604,0.0686,0.0719
T176H,0.0771,0.0656,0.0481,0.0664,0.0593,0.0826,,0.0535,0.0661,,,,,,0.0687,0.0596,,0.0599
T176G,0.0627,,0.0524,0.0589,0.0593,,0.0499,0.0648,0.0641,0.0525,0.0591,,0.0732,,0.0675,,0.0574,0.0557
M219F,0.0881,0.0607,0.049,,0.0753,0.0739,0.0552,0.0568,,0.0559,,0.069,0.0706,0.0444,0.0527,,0.0568,0.0979
I167G,,,0.0579,,,,,0.0563,,0.0513,,0.0499,,,0.0363,0.0656,0.0552,
N177Y,,,0.0622,0.064,,0.064,,0.0755,,,,,0.0567,,,,,
F218R,0.0653,,0.0532,0.0626,,0.0648,0.0745,0.0658,0.0597,,0.0498,,0.0596,,,0.0661,0.0741,0.0572
P184E,0.0442,,0.038,0.045,,0.0491,0.0427,0.0504,0.0529,,,,,0.0522,0.0577,0.0497,0.0381,0.0535
P184Q,0.0558,,0.0417,0.0665,0.0608,0.0769,0.062,0.0636,0.0596,,0.0495,0.0538,0.0448,,0.0663,,0.0519,0.0432
P184K,,0.0508,0.0663,0.0535,,0.0672,,0.0414,,0.0515,0.054,,,,0.0663,,0.0664,0.0465
